# According to article PMC5700166:
# The list shows a part of the results, in another mix than the full data. The list includes weakly bound sequences.
# Key:
# Assay in all cases: protein-binding microarray (PBM)
# Conditions in all cases: PBM: ~300 nM protein, 6 mM HEPES pH 7.8, 80 mM KCl, 0.5 mM EDTA, 0.5 mM EGTA, 6% glycerol, 35 ng/ul poly-dIdC, 1% milk, 1 h, room temperature; Ap Aiptasia and Nv Nematostella (sea anemones) / Co Capsaspora / Aq Amphimedon (sponge) / Dm Drosophila / Hu human; RHD is the Rel homology domain; high values mean tight binding; most listed sequences are background and not binding sites; double strand, one strand shown
# GST-Ap-NF-kB RHD = target: T1, GST-Ap-NF-kB RHD (UniProt A0A913YAJ5)
# T1 sequence: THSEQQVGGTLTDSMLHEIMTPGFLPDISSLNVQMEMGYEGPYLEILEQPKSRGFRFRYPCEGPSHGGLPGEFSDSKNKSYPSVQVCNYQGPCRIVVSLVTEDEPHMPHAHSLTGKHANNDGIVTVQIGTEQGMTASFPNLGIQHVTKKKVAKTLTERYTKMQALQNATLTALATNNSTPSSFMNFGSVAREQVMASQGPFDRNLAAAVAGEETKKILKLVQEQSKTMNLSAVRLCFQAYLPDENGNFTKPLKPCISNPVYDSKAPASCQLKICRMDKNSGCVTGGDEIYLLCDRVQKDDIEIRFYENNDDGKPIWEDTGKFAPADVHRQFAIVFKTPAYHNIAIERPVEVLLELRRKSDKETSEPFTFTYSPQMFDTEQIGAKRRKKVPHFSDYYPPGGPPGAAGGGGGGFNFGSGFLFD
# [1] = target: T2, GST-Nv-NF-kB (Cys allele) (UniProt E5G601)
# T2 sequence: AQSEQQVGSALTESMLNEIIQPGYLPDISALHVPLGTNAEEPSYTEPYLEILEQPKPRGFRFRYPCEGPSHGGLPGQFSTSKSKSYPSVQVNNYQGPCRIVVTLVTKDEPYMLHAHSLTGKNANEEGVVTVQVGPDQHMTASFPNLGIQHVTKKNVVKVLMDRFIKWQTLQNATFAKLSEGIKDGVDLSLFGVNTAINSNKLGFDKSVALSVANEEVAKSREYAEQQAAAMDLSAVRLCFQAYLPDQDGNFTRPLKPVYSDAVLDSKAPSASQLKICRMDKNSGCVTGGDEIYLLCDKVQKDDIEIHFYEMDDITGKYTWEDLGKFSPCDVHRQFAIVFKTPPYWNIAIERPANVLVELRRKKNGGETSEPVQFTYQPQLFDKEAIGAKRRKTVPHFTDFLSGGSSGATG
# GST-Co-NF-kB = target: T3, GST-Co-NF-kB (UniProt F1ARL5)
# T3 sequence: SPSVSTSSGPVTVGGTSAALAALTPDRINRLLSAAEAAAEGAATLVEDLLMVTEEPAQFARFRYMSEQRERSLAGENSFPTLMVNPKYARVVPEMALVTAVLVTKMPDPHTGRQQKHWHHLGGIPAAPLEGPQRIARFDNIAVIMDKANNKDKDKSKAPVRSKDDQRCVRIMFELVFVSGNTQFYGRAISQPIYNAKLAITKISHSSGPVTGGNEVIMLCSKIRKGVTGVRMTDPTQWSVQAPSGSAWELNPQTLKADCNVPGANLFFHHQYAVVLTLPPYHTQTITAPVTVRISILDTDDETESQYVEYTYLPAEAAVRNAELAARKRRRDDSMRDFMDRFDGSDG
# GST-Dm-Relish = target: T4, GST-Dm-Relish (UniProt Q94527)
# T4 sequence: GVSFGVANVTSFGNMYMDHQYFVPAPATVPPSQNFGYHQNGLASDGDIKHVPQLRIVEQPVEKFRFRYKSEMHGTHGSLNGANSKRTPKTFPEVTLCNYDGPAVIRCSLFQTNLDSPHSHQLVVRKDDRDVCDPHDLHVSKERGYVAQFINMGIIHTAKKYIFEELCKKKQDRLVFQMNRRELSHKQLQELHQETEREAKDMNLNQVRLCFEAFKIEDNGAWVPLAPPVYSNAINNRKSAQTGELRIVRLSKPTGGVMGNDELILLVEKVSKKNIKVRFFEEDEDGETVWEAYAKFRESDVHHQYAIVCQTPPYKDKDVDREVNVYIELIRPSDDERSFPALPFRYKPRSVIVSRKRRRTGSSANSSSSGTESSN
Sequence,binding signal (GST-Ap-NF-kB RHD) [z-score],binding signal [1] [z-score],binding signal (GST-Co-NF-kB) [z-score],binding signal (GST-Dm-Relish) [z-score]
CCGATTAACATCAAAGGAATTCCTGATGTTAATCGGGTCTTGATTCGCTTGACGCTGCTG,0.897,0.711,0.355,
CCGATTAACATCAAAAAATTCCATGATGTTAATCGGGTCTTGATTCGCTTGACGCTGCTG,0.373,0.184,-0.144,
CCGATTAACATCAAAAAAAGTCCTGATGTTAATCGGGTCTTGATTCGCTTGACGCTGCTG,1.18,1.72,0.654,
CCGATTAACATCACGTAATTTCCTGATGTTAATCGGGTCTTGATTCGCTTGACGCTGCTG,0.0893,-0.359,0.389,
CCGATTAACATCAATGGAATTCCTGATGTTAATCGGGTCTTGATTCGCTTGACGCTGCTG,0.0412,0.509,0.358,
CCGATTAACATCAAAAATTTCCATGATGTTAATCGGGTCTTGATTCGCTTGACGCTGCTG,-0.195,0.0391,-0.204,
CCGATTAACATCAAAAAAACTCCTGATGTTAATCGGGTCTTGATTCGCTTGACGCTGCTG,0.279,-0.23,-0.205,
CCGATTAACATCAGGTAAGTCCATGATGTTAATCGGGTCTTGATTCGCTTGACGCTGCTG,0.599,-0.508,-0.449,
CCGATTAACATCAAAACTTCCCCTGATGTTAATCGGGTCTTGATTCGCTTGACGCTGCTG,8.71,10.4,9.44,
CCGATTAACATCAGTACTTCCCATGATGTTAATCGGGTCTTGATTCGCTTGACGCTGCTG,1.53,0.975,1.42,
CCGATTAACATCAAAGAAATTCCTGATGTTAATCGGGTCTTGATTCGCTTGACGCTGCTG,0.495,0.624,0.184,
CCGATTAACATCAAGGGGAGTCCTGATGTTAATCGGGTCTTGATTCGCTTGACGCTGCTG,6.71,4.83,2.5,
CCGATTAACATCAGGAATAACCATGATGTTAATCGGGTCTTGATTCGCTTGACGCTGCTG,0.237,0.554,0.297,
CCGATTAACATCAAGGAAAGTCCTGATGTTAATCGGGTCTTGATTCGCTTGACGCTGCTG,0.292,0.954,0.18,
CCGATTAACATCAGGGGAAAACATGATGTTAATCGGGTCTTGATTCGCTTGACGCTGCTG,6.62,7.81,8.6,
CCGATTAACATCAGGAAATTTTATGATGTTAATCGGGTCTTGATTCGCTTGACGCTGCTG,0.302,0.0371,0.3,

Sequence,binding signal (GST-Ap-NF-kB RHD) [z-score],binding signal [1] [z-score],binding signal (GST-Co-NF-kB) [z-score],binding signal (GST-Dm-Relish) [z-score]
CCGATTAACATCAAGGACTTTCCTGATGTTAATCGGGTCTTGATTCGCTTGACGCTGCTG,0.519,1.03,-0.152,
CCGATTAACATCACCCCCGCCCCTGATGTTAATCGGGTCTTGATTCGCTTGACGCTGCTG,4.47,3.37,6.71,
CCGATTAACATCAGGGGTTCCACTGATGTTAATCGGGTCTTGATTCGCTTGACGCTGCTG,2.77,2.46,0.947,
CCGATTAACATCAGGATTTTCCATGATGTTAATCGGGTCTTGATTCGCTTGACGCTGCTG,-0.278,-0.683,0.229,1.28
CCGATTAACATCACGGCTTTTCCTGATGTTAATCGGGTCTTGATTCGCTTGACGCTGCTG,0.195,-0.519,-0.249,0.18
CCGATTAACATCATCCGCGGGAGTGATGTTAATCGGGTCTTGATTCGCTTGACGCTGCTG,1.05,0.45,1.38,0.151
CCGATTAACATCAAAAATTCCGCTGATGTTAATCGGGTCTTGATTCGCTTGACGCTGCTG,0.315,0.279,0.387,
CCGATTAACATCACGGAAATTTATGATGTTAATCGGGTCTTGATTCGCTTGACGCTGCTG,0.416,0.34,1.07,
CCGATTAACATCAAAATTTCCACTGATGTTAATCGGGTCTTGATTCGCTTGACGCTGCTG,-0.0148,0.333,-0.291,
CCGATTAACATCACGGCATTTCCTGATGTTAATCGGGTCTTGATTCGCTTGACGCTGCTG,0.0612,0.22,-0.00453,0.508
CCGATTAACATCAGGAATTCCACTGATGTTAATCGGGTCTTGATTCGCTTGACGCTGCTG,0.513,0.524,-0.0139,
CCGATTAACATCAAAAATTCCACTGATGTTAATCGGGTCTTGATTCGCTTGACGCTGCTG,0.175,0.543,0.0478,
CCGATTAACATCAGAGAAATTCCTGATGTTAATCGGGTCTTGATTCGCTTGACGCTGCTG,0.103,0.353,-0.475,0.927
CCGATTAACATCAGAGGAATTCCTGATGTTAATCGGGTCTTGATTCGCTTGACGCTGCTG,0.883,0.907,0.18,
CCGATTAACATCACGGAATTTTATGATGTTAATCGGGTCTTGATTCGCTTGACGCTGCTG,0.554,-0.0517,0.215,
CCGATTAACATCAATATTTCCCCTGATGTTAATCGGGTCTTGATTCGCTTGACGCTGCTG,8.09,10.1,10.7,
